# Results reported in PubChem BioAssay AID504339 (National Center for Advancing Translational Sciences (NCATS), 2011).
# The whole screen tested about 390,000 compounds, of which about 17,000 (4.4%) were called active. The shares of active, inactive and inconclusive entries below differ from those in the screen. Calls come from the whole dose curve; as a rule, active = well fitted inhibition curve with a large enough effect; inconclusive = small, poorly fitted or top-dose-only effect; inactive = no such curve, though single readings can be large or run the other way. Where the call is inconclusive, the potency comes from a doubtful curve fit.
# Target: Lysine-specific demethylase 4A (Homo sapiens) (UniProt O75164)
# Assay: qHTS Assay for Inhibitors of JMJD2A-Tudor Domain; note: nearly all actives have a fitted effect of over 50% in size
# Settings: AlphaScreen JMJD2A-Tudor / H3K4me3 peptide binding; activity change, negative = inhibition: at 114 µM (top of the series)
# % is set by controls: 0 for no effect and ±100 for the full control effect; potency is the fitted concentration of half-maximal effect; tags give direction and shape of the fitted curve.
# Sequence of UniProt O75164 (O75164 whole entry, looked up, the tested form may be a part): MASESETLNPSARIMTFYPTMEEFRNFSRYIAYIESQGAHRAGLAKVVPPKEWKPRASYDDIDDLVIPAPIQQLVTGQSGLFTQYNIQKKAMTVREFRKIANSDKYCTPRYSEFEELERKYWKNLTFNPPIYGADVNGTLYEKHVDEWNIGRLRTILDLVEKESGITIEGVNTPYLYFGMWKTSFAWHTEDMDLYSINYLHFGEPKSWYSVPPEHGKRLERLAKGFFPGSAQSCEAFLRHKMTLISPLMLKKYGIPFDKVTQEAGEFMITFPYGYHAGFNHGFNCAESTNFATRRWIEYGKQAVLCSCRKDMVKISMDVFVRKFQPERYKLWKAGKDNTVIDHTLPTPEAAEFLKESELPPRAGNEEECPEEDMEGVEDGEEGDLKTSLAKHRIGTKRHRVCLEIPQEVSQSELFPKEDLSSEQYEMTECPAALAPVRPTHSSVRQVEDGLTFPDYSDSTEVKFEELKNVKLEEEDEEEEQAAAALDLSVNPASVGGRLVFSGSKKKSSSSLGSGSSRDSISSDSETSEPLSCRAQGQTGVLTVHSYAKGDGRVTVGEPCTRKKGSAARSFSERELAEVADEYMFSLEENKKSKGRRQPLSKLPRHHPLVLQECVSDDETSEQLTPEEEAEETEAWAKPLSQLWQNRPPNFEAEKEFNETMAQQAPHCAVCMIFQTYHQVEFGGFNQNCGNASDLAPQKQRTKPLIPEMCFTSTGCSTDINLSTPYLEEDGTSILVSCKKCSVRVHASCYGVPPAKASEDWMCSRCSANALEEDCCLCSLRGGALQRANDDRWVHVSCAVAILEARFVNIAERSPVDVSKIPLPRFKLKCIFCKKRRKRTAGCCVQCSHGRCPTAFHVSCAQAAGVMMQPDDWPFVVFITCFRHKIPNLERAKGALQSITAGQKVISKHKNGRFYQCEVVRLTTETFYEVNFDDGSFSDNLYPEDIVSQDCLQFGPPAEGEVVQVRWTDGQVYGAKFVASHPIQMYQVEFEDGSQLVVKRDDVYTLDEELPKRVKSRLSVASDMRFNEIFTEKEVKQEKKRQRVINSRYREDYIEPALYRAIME
SMILES,Potency,"activity change, negative = inhibition"
NC(CSC(c1ccccc1)(c1ccccc1)c1ccccc1)C(=O)O (stereo not drawn),"inconclusive: 14.1 µM [inhibitor, full curve, poor fit]",
Cc1c(C)n(Cc2ccccc2)c2ccc(C(=O)N3CCN(c4ccccc4)CC3)cc12,active: 14.1 µM,
O=C(O)/C=C/C(=O)Nc1ccc(Oc2ccccc2)cc1,,inactive: -11.7%
COc1ccc(C(=O)NC(c2ccccc2Cl)c2cc(Cl)c3cccnc3c2O)cc1 (stereo not drawn),"inconclusive: 11.2 µM [inhibitor, full curve, poor fit]",
CCN(CC(=O)NCc1cccs1)C(=O)c1cccc(S(=O)(=O)N(CC)c2ccccc2)c1,,inactive: -17.3%
Nc1ccc2c(C(F)(F)F)cc(=O)oc2c1,"inconclusive: 89.1 µM [inhibitor, single point]",
CC(C)Oc1ccc(C(=O)N(Cc2ccc(N(C)C)cc2)Cc2ccco2)cc1,active: 25.1 µM,
CCN(c1ccccc1)S(=O)(=O)c1ccc(N2CCN(c3ccccc3O)CC2)nc1,"inconclusive: 63.1 µM [inhibitor, partial curve]",
COc1ccc(N2CC(C(=O)N[C@H](C(=O)NC(C)c3ccccc3)C(C)C)CC2=O)cc1 (stereo partly drawn),,inactive: -9.7%
O=C(Nc1nc2ccc(F)cc2s1)c1ccccn1,,inactive: -12.5%
Cc1cccc(-c2cc(C(=O)N/N=C/c3cccnc3)c3ccccc3n2)c1,"inconclusive: 79.4 µM [inhibitor, partial curve]",
O=C(COC(=O)c1ccc2ccccc2c1O)NCC(F)(F)F,"inconclusive: 25.1 µM [inhibitor, full curve]",
Cc1cccc(N2CC(C(=O)Nc3nnc(SCC(=O)NCC4CCCO4)s3)CC2=O)c1 (stereo not drawn),"inconclusive: 39.8 µM [inhibitor, partial curve]",
Nc1cccc(-c2c[nH]c3ncc(-c4cccnc4)cc23)c1,active: 17.8 µM,
Cc1cccc(C(=O)Nc2ccc(N3CC=C(c4ccccc4C)CC3)c(C(=O)O)c2)c1,"inconclusive: 89.1 µM [inhibitor, single point]",
CC1=C(C(=O)N2CCCCC2)C(c2ccc(Cl)cc2)n2c(nc3ccccc32)N1 (stereo not drawn),,inactive: -13%
COc1ccc(-c2cn3cc(C)ccc3n2)cc1F,active: 20 µM,
O=c1c(C=NCCCn2ccnc2)c(-c2ccccc2)[nH]n1-c1nc2ccccc2s1,"inconclusive: 44.7 µM [inhibitor, full curve, poor fit]",
COC(=O)c1ccccc1NC(=O)CNc1cc(OC)c(OC)cc1C,"inconclusive: 56.2 µM [inhibitor, partial curve]",
Nc1ccc(C(=O)OCC(=O)N2c3ccccc3Sc3ccccc32)cc1[N+](=O)[O-],"inconclusive: 7.08 µM [inhibitor, partial curve]",
c1ccc(CCN2CCN(c3ncnc4c3cnn4-c3ccccc3)CC2)cc1,"inconclusive: 56.2 µM [inhibitor, partial curve]",
COc1cccc(/C=C/C(=O)OCC(=O)Nc2ccc(S(=O)(=O)N3CCCC3)cc2)c1,,inactive: -12.6%
Cc1ccc(NC(=O)C[n+]2cc(-c3ccc(C)cc3)n3c2CCC3)cc1,active: 8.91 µM,

SMILES,Potency,"activity change, negative = inhibition"
S=C(Nc1ccccc1)Nc1nc2ccccc2n1CCOc1ccc(Br)cc1,"inconclusive: 28.2 µM [inhibitor, single point]",
Cc1cc(C2C(C#N)=C(N)SC(N)=C2C#N)c(C)s1,"inconclusive: 15.8 µM [inhibitor, full curve, poor fit]",
O=c1[nH]c(CN2CCN(c3ccccc3)CC2)nc2scc(-c3ccccc3)c12,"inconclusive: 31.6 µM [inhibitor, partial curve]",
COc1ccccc1N1CCN(CCN2C(=O)CC3(CCCC3)CC2=O)CC1,"inconclusive: 89.1 µM [inhibitor, single point]",
CCCCN(CCCC)S(=O)(=O)c1ccc(NC(=O)Cc2cccs2)cc1,active: 44.7 µM,
C=CCNc1ncnc2c1cnn2-c1ccc(Cl)cc1,"inconclusive: 17.8 µM [inhibitor, full curve]",
[O-]c1n[n+](-c2ccc(Cl)cc2)cc2ccccc12,active: 14.1 µM,
O=c1cc(CO)oc(CN2CCN(c3ccccc3)CC2)c1O,active: 50.1 µM,
CN(C)c1ccc(/C=C2\C(=N)N3N=C(CC(=O)N4CCCCC4)SC3=NC2=O)cc1,"inconclusive: 50.1 µM [inhibitor, partial curve]",
CN(C)CCCn1c(-c2ccc(Cl)cc2)csc1=Nc1ccccc1,active: 39.8 µM,
CN(C)c1ccc(/C=C2\N=C(c3ccc(Cl)c([N+](=O)[O-])c3)NC2=O)cc1,"inconclusive: 28.2 µM [inhibitor, partial curve]",
CC(C)(C)NC(=O)NC(=O)CSc1ccc(S(=O)(=O)N2CCOCC2)cn1,active: 79.4 µM,
CC(=O)Nc1ccc(N=Cc2c(O)c(C(=O)Nc3ccccc3)cc3ccccc23)cc1,"inconclusive: 12.6 µM [inhibitor, partial curve]",
CC(C)N1CCC(N2CCN(CC#Cc3ccccc3)CC2CCO)CC1 (stereo not drawn),,inactive: -15.5% [at 57.1 µM]
CN(C)N=C1c2cc(S(=O)(=O)N3CCOCC3)ccc2-c2ccc(S(=O)(=O)N3CCOCC3)cc21,"inconclusive: 11.2 µM [inhibitor, full curve]",
COc1ccc(C(=O)NCC2(c3ccccc3)CCOCC2)cc1[N+](=O)[O-],active: 31.6 µM,
O=C(O)CCc1nn2c3ccccc3n(Cc3ccccc3F)c2nc1=O,"inconclusive: 17.8 µM [inhibitor, partial curve]",
CCOc1ccccc1N1CC(c2nc3ccccc3n2CCCOc2ccc(OC)cc2)CC1=O (stereo not drawn),"inconclusive: 56.2 µM [inhibitor, partial curve]",
CC(C)OCCCN1C(=O)c2[nH]nc(-c3ccccc3O)c2C1c1ccccc1F (stereo not drawn),,inactive: -31.6%
CNC(=S)N=Nc1c(O)[nH]c2ccc(C(C)C)cc12,"inconclusive: 35.5 µM [inhibitor, partial curve]",
Cn1c(Cc2c[nH]c3ccccc23)n[nH]c1=S,active: 5.01 µM,
CN1CCN(C2=C(Cl)C(=O)N(c3ccc(Cl)cc3)C2=O)CC1,active: 39.8 µM,
Cc1cc(O)c(C(c2ccccc2)N2CCN(c3ccc(F)cc3)CC2)c(=O)n1Cc1ccco1 (stereo not drawn),"inconclusive: 79.4 µM [inhibitor, partial curve]",

SMILES,Potency,"activity change, negative = inhibition"
C(=C\c1ccccc1)/C=N/N1CCN(c2ccccn2)CC1,"inconclusive: 50.1 µM [inhibitor, partial curve]",
Cc1ccc(-n2c(CCC(=O)O)ccc2-c2cccs2)cc1Cl,"inconclusive: 44.7 µM [inhibitor, partial curve]",
COc1ccc2c(c1)CCc1c(C(=O)NCCCn3ccnc3)noc1-2,"inconclusive: 50.1 µM [inhibitor, partial curve]",
COC(=O)C(C)Sc1ccc2nnc(-c3ccccc3)n2n1 (stereo not drawn),,inactive: -8.84%
CCO[C@H]1OC(C(=O)N2CCN(Cc3ccc4c(c3)OCO4)CC2)=C[C@@H](c2ccc(C(F)(F)F)cc2)[C@@H]1CCCO,"inconclusive: 50.1 µM [inhibitor, partial curve]",
COc1ccc(OC)c(CNC(=O)CCC(=O)N2Cc3cccc(OC)c3Oc3ncccc32)c1,,inactive: -8.17%
Cc1ccc(-n2c(SCC(N)=O)nnc2-c2ccc(S(=O)(=O)N3CCCCC3)cc2)c(C)c1,"inconclusive: 10 µM [inhibitor, full curve, poor fit]",
COc1cc(C2CC(=O)Nc3ccc4ccccc4c32)ccc1OC(=O)C(C)C (stereo not drawn),"inconclusive: 28.2 µM [inhibitor, full curve, poor fit]",
Nc1nc(-c2ccc(Br)s2)c(Br)s1,"inconclusive: 89.1 µM [inhibitor, single point]",
CCOc1ccc(OCC)c(NC(=O)C2CCN(S(=O)(=O)c3ccc4c(c3)CC(C)N4C(C)=O)CC2)c1 (stereo not drawn),"inconclusive: 35.5 µM [inhibitor, full curve]",
COc1ccc(CCNc2ccc(C(CC(N)=O)NC(=O)c3cc(OC)ccc3OC)cc2[N+](=O)[O-])cc1 (stereo not drawn),"inconclusive: 22.4 µM [inhibitor, full curve, poor fit]",
O=C(/C=C/NNC(=O)c1ccc(Br)cc1)c1ccccc1,"inconclusive: 56.2 µM [inhibitor, partial curve]",
Cc1onc(-c2c(Cl)cccc2Cl)c1C(=O)NC(=S)Nc1sc2c(c1C(N)=O)CCC(C)C2 (stereo not drawn),"inconclusive: 70.8 µM [inhibitor, single point]",
CSc1nc(N2CCOCC2)nc2ccc(C)cc12,,inactive: 87.3%
CC(NC(=O)c1ccccc1Br)c1nnc(SCC(=O)NC2=NCCS2)n1C (stereo not drawn),,inactive: -3.57%
O=C(NCCc1ccc(Cl)cc1)c1ccc2ccccc2n1,"inconclusive: 35.5 µM [inhibitor, single point]",
CCN(CC)CCNC(=O)c1[nH]c2ccc(OCc3ccccc3)cc2c1C,"inconclusive: 31.6 µM [inhibitor, full curve]",
Cn1nnnc1SCC1=C(C(=O)O)N2C(=O)C(NC(=O)C3CC3c3ccccc3)C2SC1 (stereo not drawn),"inconclusive: 56.2 µM [inhibitor, partial curve]",
Cc1ccc(NCC(=O)N/N=C/c2cccn2C)cc1,"inconclusive: 63.1 µM [inhibitor, partial curve]",
CC(=O)Nc1nc(N)n(-c2ccccc2)n1,,inactive: -33.8%
O=C(Nc1ccc(F)cc1)NC1CCN(Cc2nnnn2Cc2ccco2)CC1,"inconclusive: 89.1 µM [inhibitor, partial curve]",
CCCCC1=CC2=C(c3ccco3)C(=O)C(C)(OC(=O)c3ccc(OC)cc3)C(=O)C2=CN1CCCN(CC)CC (stereo not drawn),"inconclusive: 50.1 µM [inhibitor, partial curve]",
